The campaign covered roughly 310,000 compounds. About 18,000 (5.8%) were called active. Inconclusive results, whose numbers are uncertain, are shown with a selection of clear calls. Calls come from the whole dose curve; as a rule, active = well fitted inhibition curve with a large enough effect; inconclusive = small, poorly fitted or top-dose-only effect, or another doubt; inactive = no such curve, though single readings can be large or run the other way. Potencies of inconclusive entries are left out as doubtful fits.
Assay: Primary qHTS for delayed death inhibitors of the malarial parasite plastid, 48 hour incubation
Conditions: P. falciparum luciferase growth in erythrocytes; series mostly up to 28.7 µM; activity change, negative = inhibition: at the top concentration
Summary of the method: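 Compounds are pin-transferred into medium, infected erythrocytes (2% hematocrit, 0.1% parasitemia final) are added, and plates sit one parasite generation at 37 C in 5% CO2. Detection reagent is then added and luminescence measured.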
% is set by controls: 0 for no effect and ±100 for the full control effect; potency is the fitted concentration of half-maximal effect; tags give direction and shape of the fitted curve.

| SMILES | Potency | activity change, negative = inhibition |
| --- | --- | --- |
| Oc1ccc(N=Nc2ccc(Br)cc2)c(O)c1 | inconclusive [inhibitor, partial curve] |  |
| CCCN(CC(=O)Nc1ccc(Cl)cc1Cl)C(=O)/C=C/c1cccc([N+](=O)[O-])c1 |  | inactive: 7.06% |
| Cc1noc(C)c1COc1cccc(C(=O)OCC(=O)N2CC(=O)Nc3ccccc32)c1 | inconclusive [inhibitor, partial curve] |  |
| Cn1c(N)c(C(=O)COC(=O)CNC(=O)c2ccccc2Cl)c(=O)n(C)c1=O | inconclusive [inhibitor, single point] |  |
| CC1CCCC(C)N1/N=C/c1c[nH]c2ccc(Br)cc12 (stereo not drawn) | inconclusive [inhibitor, single point] |  |
| Cc1ccc(NS(=O)(=O)c2cccc(C(=O)NCC(c3cccs3)N3CCOCC3)c2)cc1 (stereo not drawn) | inconclusive [inhibitor, single point] |  |
| CCc1ccc2c(c1)cc(CN(C(=S)Nc1ccccc1C)C1CC1)c1nnnn12 | active: 3.29 µM |  |
| CC(=O)N1c2ccc(S(=O)(=O)N3CCC(C(=O)Nc4cccc(C(F)(F)F)c4)CC3)cc2CC1C (stereo not drawn) | inconclusive [inhibitor, partial curve] |  |
| CCCCCn1c(=O)c(C(=O)Nc2nc3ccccc3[nH]2)c(O)c2ccccc21 | inconclusive [inhibitor, single point] |  |
| Cc1ccc2c(Cn3ccnc3)cc(=O)oc2c1C |  | inactive: -9.84% |
| COc1ccccc1N1N=C(c2ccc([N+](=O)[O-])cc2)CC1c1ccccc1 (stereo not drawn) | inconclusive [inhibitor, partial curve, poor fit] |  |
| CCOc1ccc2cc(C3CC(c4ccco4)=NN3S(C)(=O)=O)c(Cl)nc2c1 (stereo not drawn) | inconclusive [inhibitor, partial curve, poor fit] |  |
| O=C(C1CCCN1C(=O)c1cccs1)N1CCN(Cc2ccc3c(c2)OCO3)CC1 (stereo not drawn) |  | inactive: -5.76% |
| CCOC(=O)C1CCCN(C(=O)c2cc3c(-c4cccc(OC)c4)nn(C)c3s2)C1 (stereo not drawn) | inconclusive [inhibitor, single point] |  |
| CCC(C(=O)NC1CCCC1)N(C(=O)Cn1nnc(-c2ccc(OC)c(OC)c2)n1)C1CCCCC1 (stereo not drawn) | active: 9.28 µM |  |
| COCCNC(=O)/C(C#N)=C/c1c(N2CCN(c3cccc(Cl)c3)CC2)nc2c(C)cccn2c1=O | active: 13.1 µM |  |
| CCOC(=O)C(N)CSC1CC(=O)N(c2ccc(C(=O)OC)cc2)C1=O (stereo not drawn) |  | inactive: 54.1% |
| COc1ccccc1N1CCN(C(c2cccs2)C(C)NC(=O)c2cccs2)CC1 (stereo not drawn) | inconclusive [inhibitor, partial curve, poor fit] |  |
| CC(=O)OCCNc1cc(SC(C)C)c2nonc2c1[N+](=O)[O-] | inconclusive [inhibitor, partial curve, poor fit] |  |
| c1cc(C(c2nnnn2C2CCCCC2)N2CCN3CCCC3C2)ccn1 (stereo not drawn) | inconclusive [inhibitor, single point] |  |
| O=C(CSc1nc(=O)n(CCCN2CCOCC2)c2c1CCCC2)Nc1cccc(Cl)c1 | inconclusive [inhibitor, single point] |  |
| Cc1ccc(-c2nc3c(=O)n(-c4ccccc4)c4c(c(=O)n(C)c(=O)n4C)c3o2)cc1 | inconclusive [inhibitor, partial curve] |  |

| SMILES | Potency | activity change, negative = inhibition |
| --- | --- | --- |
| CCC(=O)N1CCCN(S(=O)(=O)c2ccc(C)cc2)C1c1ccc(OC)cc1 (stereo not drawn) | active: 13.1 µM |  |
| COc1ccc(NC(=O)CSc2nc3ccccc3c(=O)n2CCCC(=O)NCC2CCCO2)c(OC)c1 (stereo not drawn) | inconclusive [inhibitor, partial curve, poor fit] |  |
| CCc1ccc(NC(=S)NC2CC3CCCC(C2)N3Cc2ccccc2)cc1 (stereo not drawn) | active: 6.57 µM |  |
| CCOc1ccc(CC2NCCc3cc(OCC)c(OCC)cc32)cc1OCC (stereo not drawn) | active: 11.7 µM |  |
| COc1cc2c(cc1OC)C(c1cccs1)N(C(=O)c1cccnc1)CC2 (stereo not drawn) | inconclusive [inhibitor, partial curve] |  |
| Cc1ccccc1CN(c1ccc(C(=O)Nc2ccccc2C(=O)NCc2ccco2)cc1)S(C)(=O)=O | inconclusive [inhibitor, full curve, poor fit] |  |
| Cc1ccc2cc3c(nc2c1)N(c1ccccc1)CC3 | inconclusive [inhibitor, partial curve] |  |
| CC(=O)c1ccc(NC(=O)CSc2nc(C3CC3)nc3ccccc23)cc1 | inconclusive [inhibitor, single point] |  |
| COc1ccc2nc3sc(C(=O)NCc4cccs4)c(N)c3cc2c1 |  | inactive: 93.6% |
| CC/C(=C(/CC)c1ccc(O)cc1)c1ccc(O)cc1 | inconclusive [inhibitor, single point] |  |
| Cc1ccc(NS(=O)(=O)c2cc(NC(=O)c3ccc4c(c3)NC(=O)CS4)ccc2C)c(C)c1 | inconclusive [inhibitor, single point] |  |
| CCOC(=O)C(CCC(C)=O)C(=O)c1ccccc1 (stereo not drawn) |  | inactive: 19.8% |
| CCN(CC)c1ccc(/C=N/Nc2nc3ccccc3[nH]2)cc1 | active: 1.85 µM |  |
| Cc1cccc(OCCN2CSC(=S)N(C)C2)c1 |  | inactive: -0.833% |
| COc1ccc(OC)c(-c2cc(C(=O)NCc3ccco3)no2)c1 |  | inactive: 53.5% |
| COc1ccc(OC)c(C(=O)CSc2nnc(-c3cccs3)n2C)c1 | inconclusive [inhibitor, single point] |  |
| Cc1nn(-c2ccccc2)c(C)c1/C=C1\C(=O)N(C)C(=S)N1C | inconclusive [inhibitor, full curve, poor fit] |  |
| CC1CCCCN1S(=O)(=O)c1ccc(NC(=O)c2cccc(-n3cnnn3)c2)cc1 (stereo not drawn) | active: 9.28 µM |  |
| CCCn1c(=O)[nH]c(=O)c2c(C(=O)OCC)cc(-c3cccs3)nc21 | inconclusive [inhibitor, single point] |  |
| COc1cc(/C=C/C(=O)OCC(=O)Nc2ccc(S(N)(=O)=O)cc2)ccc1O | inconclusive [inhibitor, single point] |  |
| COc1ccc(C)cc1NC(=O)N1CCC2(CC1)OCCO2 | inconclusive [inhibitor, partial curve, poor fit] |  |

— PubChem BioAssay AID504832 (National Center for Advancing Translational Sciences (NCATS), 2011)
